We go through 43 molecules from article PMC4336329 (PLoS ONE, 2015).

The campaign covered roughly 310,000 compounds. About 14,000 (4.5%) showed an effect of 50% or more. The effect is printed as a negative number. Some of the results follow.
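Note: peak tail current of the secondary pulse compared with the same well before compound.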

This test deals with human ether-à-go-go-related gene (hERG) potassium channel (human, UniProt Q12809). In words: primary screen, population patch clamp on CHO cells stably expressing hERG.
human ether-à-go-go-related gene (hERG) potassium channel, sequence (Q12809 whole entry, looked up): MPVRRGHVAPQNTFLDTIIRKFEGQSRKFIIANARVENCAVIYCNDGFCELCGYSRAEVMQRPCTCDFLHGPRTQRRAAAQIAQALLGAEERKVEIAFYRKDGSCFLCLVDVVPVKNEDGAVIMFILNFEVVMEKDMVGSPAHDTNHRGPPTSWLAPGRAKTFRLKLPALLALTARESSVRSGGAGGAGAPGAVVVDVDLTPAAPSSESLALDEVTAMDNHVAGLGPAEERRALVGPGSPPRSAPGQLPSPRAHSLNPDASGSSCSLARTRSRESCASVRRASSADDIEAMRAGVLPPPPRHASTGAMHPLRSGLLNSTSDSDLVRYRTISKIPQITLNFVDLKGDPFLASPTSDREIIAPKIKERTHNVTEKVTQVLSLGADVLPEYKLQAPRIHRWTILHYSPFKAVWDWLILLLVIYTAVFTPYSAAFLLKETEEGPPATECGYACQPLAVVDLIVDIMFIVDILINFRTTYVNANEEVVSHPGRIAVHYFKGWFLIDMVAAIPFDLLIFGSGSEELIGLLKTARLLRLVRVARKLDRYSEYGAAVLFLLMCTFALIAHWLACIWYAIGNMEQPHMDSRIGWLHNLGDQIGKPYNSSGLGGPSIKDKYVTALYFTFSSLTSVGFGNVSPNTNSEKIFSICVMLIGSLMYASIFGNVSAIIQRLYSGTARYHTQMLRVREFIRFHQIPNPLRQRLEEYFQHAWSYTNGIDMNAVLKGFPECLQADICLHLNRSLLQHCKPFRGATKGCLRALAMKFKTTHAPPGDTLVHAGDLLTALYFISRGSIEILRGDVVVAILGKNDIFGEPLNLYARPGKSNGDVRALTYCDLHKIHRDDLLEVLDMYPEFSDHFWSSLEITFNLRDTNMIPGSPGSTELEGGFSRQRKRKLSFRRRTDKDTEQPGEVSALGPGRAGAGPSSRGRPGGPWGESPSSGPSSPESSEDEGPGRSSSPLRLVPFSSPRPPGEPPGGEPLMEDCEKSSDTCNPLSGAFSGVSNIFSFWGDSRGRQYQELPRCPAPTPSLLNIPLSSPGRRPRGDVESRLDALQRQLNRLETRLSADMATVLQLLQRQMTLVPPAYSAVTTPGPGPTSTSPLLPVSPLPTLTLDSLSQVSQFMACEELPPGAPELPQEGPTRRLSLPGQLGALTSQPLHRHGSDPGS
As to `COc1ccc(O)c(C2=Nc3ccccc3N=C(c3ccccc3)C2)c1`, the “hERG current change (%, negative = inhibition) at 10uM” value is recorded as 0.102%.
In the case of `Cc1ccccc1-c1nc(CS(=O)(=O)CC(=O)NC2CCCC2)c(C)o1` it was 4.63%; in that of `CCOc1ccc(-c2[nH]ncc2Oc2ccccc2OC)c(O)c1`, 10.3%; in that of `CCN(CCCNC(=O)c1cc2c(-c3cccc(OC)c3)nn(C)c2s1)Cc1ccccc1`, -68.1%.
Next, `COc1ccc(OCCNC(=O)c2ccccc2OCC(=O)Nc2ccc(NC(C)=O)cc2)cc1`: -11.6%; `CC(C)Cn1c(SCC(=O)c2c(N)n(C)c(=O)n(C)c2=O)nc2ccccc21`: 8.79%.
As for `C#CCOc1nc(Nc2cccc([N+](=O)[O-])c2)nc(OCC#C)n1`, the “hERG current change (%, negative = inhibition) at 10uM” value is listed as -10.1%.
Regarding `COc1cccc(CN2CCN(C(=O)c3cccc4ccccc34)CC2)c1OC.O=C(O)C(=O)O`, the “hERG current change (%, negative = inhibition) at 10uM” value is given as -0.0473%.
Consider `COc1cccc(NC(=O)CSc2nnc(-c3ccoc3C)n2CC2CCCO2)c1` (stereo not shown), for which the “hERG current change (%, negative = inhibition) at 10uM” value is on record as -1.09%.
In the case of `Cc1ccc(/C=N/NC(=O)c2ccncc2)cc1` it was 1.58%; in that of `COc1cccc(CNC(=O)c2ccc(C)c(S(=O)(=O)N3CCOCC3)c2)c1`, -14.9%; in that of `COCCCNC(=O)c1cc2c(-c3ccc(Cl)cc3)nn(C)c2s1`, -3.72%.
In the case of `O=C(CN1C2CCCC1CC(NC(=O)c1ccccc1)C2)Nc1ccccc1C(F)(F)F` (stereo not shown) it was 6.14%; in that of `Cc1ccc(C23CC4CC(CC(NC(=O)NC(C)(C)CO)(C4)C2)C3)cc1`, -2.15%; in that of `Clc1ccccc1-c1nc(-c2ccncc2)no1`, -3.96%.
For `CC(=O)c1ccc(NC(=O)COc2ccccc2C(=O)Nc2ccccc2)cc1`, the “hERG current change (%, negative = inhibition) at 10uM” value was 9.66%.
Turning to `O=S(=O)(c1ccc(Cl)cc1)c1cc(O)ccc1O`, the “hERG current change (%, negative = inhibition) at 10uM” value is given as 8.43%.
Next, `Cc1cccc(NC(=O)CN2C(=S)NC(C)(C)CC2C)c1C` (stereo not shown): 6.98%; `COc1ccc(CC(=O)NC(C)c2nnc(SCC(=O)Nc3ccccc3F)n2C)cc1` (stereo not shown): 9.89%.
Take `COc1ccc2c(c1)O[C@H](c1ccc3c(c1)OCO3)[C@@H](OC(=O)N[C@H](C)C1CCCCC1)C2=O`: the “hERG current change (%, negative = inhibition) at 10uM” value is on record as -9.35%.
Next, `CCOc1ccc(NC(=O)CC(Cc2cc(C)cc(C)c2)C(=O)O)cc1` (stereo not shown): 14.6%; `O=C(Oc1ccccc1N1C(=O)C2CCCCC2C1=O)c1ccccc1F` (stereo not shown): 2.26%; `CCOc1ccc2ccccc2c1C1NC(=O)NC(C)=C1C(=O)OCCOC` (stereo not shown): 29.7%.
In the case of `CC1=NN(c2ccccc2)C(=O)/C1=C\c1cc(C)n(C)c1C` it was 18.1%; in that of `COc1ccc(C2CC(=O)c3cnc(NC(=O)c4ccccc4)nc3C2)c(OC)c1` (stereo not shown), -17.7%.
Regarding `CCOc1ccccc1NC(=O)N1CCC(n2nnc3cc(C)ccc32)CC1`, the “hERG current change (%, negative = inhibition) at 10uM” value is -53.9%.
Next, `OC(COc1ccc(-c2ccccc2)cc1)CN1CCOCC1` (stereo not shown): -19.7%; `O=C(COc1ccccc1Cl)Nc1ccccc1C(=O)N1CCOCC1`: -3.18%; `Cc1c(C(N)=O)sc2nc(-c3ccccc3)cn12`: 1.01%.
Regarding `C=CCNC(=O)c1cc2c(=O)n3cccc(C)c3nc2s1`, the “hERG current change (%, negative = inhibition) at 10uM” value worked out at 0.811%.
In the case of `CC1Oc2ccccc2N(CC(=O)Nc2ccccc2F)C1=O` (stereo not shown) it was 21%; in that of `Cn1c(SCC(=O)NCc2ccccc2)ncc(C(=O)Nc2ccccc2)c1=O`, -20%; in that of `COc1ccc(OC)c(-c2csc(NC(=O)CSc3ccc([N+](=O)[O-])cc3)n2)c1`, 13.5%.
In the case of `CNCC(O)c1ccc(OC(=O)C(C)(C)C)c(OC(=O)C(C)(C)C)c1.Cl` (stereo not shown) it was -2.48%; in that of `COc1cc(/C=N/NC(=O)Cn2ccc(C(F)(F)F)n2)cc(OC)c1OC`, -3.8%.
Next, `Cc1ccc(NC(=O)Nc2ccc(S(N)(=O)=O)cc2)cc1`: 16.5%; `CC(C(=O)N1CCOCC1)(c1ccccc1)c1ccccc1`: -4.73%.
Consider `CN(C)S(=O)(=O)c1ccc(/C(O)=C2/C(=O)C(=O)N(CCCN3CCOCC3)C2c2ccncc2)cc1` (stereo not shown), for which the “hERG current change (%, negative = inhibition) at 10uM” value was 18.3%.
In the case of `COCCNS(=O)(=O)c1ccc2c(c1)Cc1cc(S(=O)(=O)NCCOC)ccc1-2` it was -22.1%.
Next, `COc1ccc(NC2CCCCC2NS(=O)(=O)c2ccc(C)cc2)cc1` (stereo not shown): -0.922%; `CCC(C)[C@H](N)c1nnc(SCc2cccc(F)c2)o1.Cl` (stereo partly shown): 18.8%.
For the molecule `O=S(=O)(Nc1ccc(N2CCOCC2)cc1)c1ccccc1`, the “hERG current change (%, negative = inhibition) at 10uM” value is on record as 1.24%.
Consider `COc1cc2c3nnc(-c4ccc(F)cc4)c-3cn(Cc3ccc(F)cc3)c2cc1OC`, for which the “hERG current change (%, negative = inhibition) at 10uM” value was -28.5%.
